In the RNAGym collection of RNA variant scans (doi:10.7554/elife.90254):
The source gives no read counts; variants with many changes may rest on few reads.

B1: LINE1-mini (parent)
chain: GGCAGAGCUCAACACAGCGUGGCAAAGUGGCUGUGGCUAGACUGCC

Variants of: B1
Test: self-cleavage, relative activity (ratio to wild type); higher = more cleavage; in vitro, sequencing; the parent is a self-cleaving ribozyme

Variant	self-cleavage
GGCUUAGCUCAAAACAGCGUGGCAAAGUGGCUGUGGCUAGACUGCC [A4U G5U C13A]	0.24
GGCUGAGCUCAACACAGCGUGGCAAAGUGCCGGUGGCUAGACUGCC [A4U G30C U32G]	0.04
GGCUGAGCUCAACACAGCGUUGCUAAGUGGCUGUGGCUAGACUGCC [A4U G21U A24U]	0.14
GGCUGAGCUCAACACAGCGUUGCGAAGUGGCUGUGGCUAGACUGCC [A4U G21U A24G]	0.45
GGCUCAGCUCAACACAGCGGGGCAAAGUGGCUGUGGCUAGACUGCC [A4U G5C U20G]	0.01
GGCUUAGCUCAACACAGCGUGGCAAAGUGGCUGAGGCUAGACUGCC [A4U G5U U34A]	0.03
GGCUGAGCUCAACACAGCGUAGUAAAGUCUCUGUGGCUAGACUGUA [A4U G21A C23U G29C G30U C45U C46A]	0.05
GGCUGAUCUUAACACAGCGUGGCAAAGUGGCUGUGGCUUGACUGCC [A4U G7U C10U A39U]	0.13
GGCUGAGCUCAACACAGCUUGGCAAAGUGGCUGUUGCCAGACUGCC [A4U G19U G35U U38C]	0.05
GGCUGAGCUCAACACAUCGUGGCAAAGUACCUGUGGCUAGACUGCC [A4U G17U G29A G30C]	0.03
GGCUUAGCUCAGCACAGCGUCGCAAAGUGGCUGUGGCUAGAUUGCC [A4U G5U A12G G21C C42U]	0.01
GGCUGAGCUCAACACAGCGUGACAAAGUGGCUGUGGCUAAACUGGC [A4U G22A G40A C45G]	0.49
GGCUGAGCUCAACACAGCGUGGCAAACUGGCUGUGGCAGGUUUGCC [A4U G27C U38A A39G A41U C42U]	0.05
GGCUGAGCUCAACACAGCGUGGCAAAGUGGCUGUGGCUAAACUGGC [A4U G40A C45G]	0.07
GGCUUAGCUCAACACAUCGUGGCAAAGUGGCUGUGGCUAGACUGCC [A4U G5U G17U]	0.04
GGCUGACCUCAACACAGCGUGGCAAAGUGGAUGUCGCUAGACUUCG [A4U G7C C31A G35C G44U C46G]	0.01
GGCUGAGCUCAACACAGCGUGGCAAAGUGGCUAUGGUUAGACUGCC [A4U G33A C37U]	0.1
GGCUGAGCUCAACACAGCGGGGCAAAGUUGCUGUGGCUAGACUGCC [A4U U20G G29U]	0.92
GGCUGAGCUCAACACAGCGUGACAAAGUGGCUGUGGCGAGUCUGCC [A4U G22A U38G A41U]	0.04

Variant	self-cleavage
GGCUGAUCUCAGCACAGCGUGGCAAAGUGGCUGUGGCUAGACUGCC [A4U G7U A12G]	0.05
GGCUGAGCUCAACACAGCGUGGCAAAGUUGCUGUGGCUAGACUGGC [A4U G29U C45G]	0.09
GGCUGAGCUCAACACAGCGUGGCAAAAUGGUUGUUGCUAGACUGCC [A4U G27A C31U G35U]	0.12
GGCUGAGCUCAACACAGCGUGUCAAAGUGGCUUUGGCUAGACUGCC [A4U G22U G33U]	0.07
GGCUGAGCACAACACAGCGUGGCUAAGUGGCUGUGGCUAGACUGCC [A4U U9A A24U]	0.14
GGCUUAGCGCAACACAGCGUGGCAAAGUGGCUGUGGCUAGCCUGCC [A4U G5U U9G A41C]	0.08
GGCUGAGCACCACACAGGGUGGCAAAGUGGCUGUGCCUAGCCUGCC [A4U U9A A11C C18G G36C A41C]	0.02
GGCUGAACUCAACACAGCGUGGCAAAGUGGCUGUGGCUAGAGUGCC [A4U G7A C42G]	0.01
GGCUGAGCUCAACACAGCGUGGCAAAGUGGCUGUUGCUAGAGUGCC [A4U G35U C42G]	0.15
GGCUUAGCUCAACACAGCGUGGCAAAGUGGCUGUGGCUAGACUGGC [A4U G5U C45G]	0.05
GGCUUAGCUCAAGGCACCGUGGAAAACUGGCUGUGGCUAGAGUUCC [A4U G5U C13G A14G G17C C23A G27C C42G G44U]	0.3
GGCUGAGCUCAACACAGCGUGGCAAAAUGGCUGUGGAGAAACUGCC [A4U G27A C37A U38G G40A]	0.01
GGCUGAUCUCAUCACAGCGUGGCAAAGUGGCUGUGGCUAGAUUGCC [A4U G7U A12U C42U]	0.03
GGCUCAGCUCAACACAGCGUGACAAAGUGGCUGAGGCAAGACUGCU [A4U G5C G22A U34A U38A C46U]	0.02
GGCUGAGCUCAACACAGCAUGGCAAAGUGGCUGUGGCUAGACUCCC [A4U G19A G44C]	0.62
GGCUGAGCUCAACACAGCGUGGCAAAGUGGCUGUGUCUAGACUACC [A4U G36U G44A]	0.01
GGCUGAUCUCAACACAGCGAGGCAAAGUGGCUGUGGCUAGCCUGCC [A4U G7U U20A A41C]	0.02
GGCUUAGAUCAACACAUCGUGGCAACGUGGCUGUGGCUAGACUGCC [A4U G5U C8A G17U A26C]	0.2
GGCUGAGCGCAACAGAGCGUGACAAAGUGGCUGUGGCUAGACUGCC [A4U U9G C15G G22A]	0.04

Variant	self-cleavage
GGCUCAGCUCAACACAGCGUGGCAAAGUGGCUGAGCCUAGACUGCC [A4U G5C U34A G36C]	0.06
GGCUGAUCUCAACAAAGCGUGGCAAAGGGGCUGUGGCUAGACUGCC [A4U G7U C15A U28G]	0.01
GGCUGAGCUCAACACAGCGUGGCAAAGUAGCUGUGGCAACACAGCC [A4U G29A U38A G40C U43A]	0.02
GGCUGAGCUCAACACAGCUUGGCAAAGCGGCUGUGGCUAGACUGAC [A4U G19U U28C C45A]	0.02
GGCUGAGCUCAACACAGCAUGGCAAAGUCGCUGUGGCUAGACUGCC [A4U G19A G29C]	0.28
GGCUGAGCUCAACACAGCGUAGAAGAGUGGCUGUGGCUAGACUGCC [A4U G21A C23A A25G]	0.13
GGCUGAGCUCAACACACCGUGGCAGAGUGGCUGUGGCUAGACUGCC [A4U G17C A25G]	0.13
GGCUGAGCACAACACUGCGUGGCAAAGUGGCUGUGGCUAGACUGCC [A4U U9A A16U]	0.07
GGCUGAGCACAACACAGCGUGGCAAAGUGGCUAUGGCUAGACUGCC [A4U U9A G33A]	0.27
GGCUGACCUCAACACAGCGUGGCAAAGUGGAUGUGGCUAGACUGCC [A4U G7C C31A]	0.24
GGCUUAGCACAACACAGCGUGGCAAAGUGACUGUGGCUCUAAUGCC [A4U G5U U9A G30A A39C G40U C42A]	0.19
GGCUGACCUCAACACAGCGUGGCAAAGUGGCUCUGGCUAGACUCAC [A4U G7C G33C G44C C45A]	0.01
GGCUGAGCCCAAAACAGCGUGUCAAAGUGGCUGUUGCUAAAUUGCC [A4U U9C C13A G22U G35U G40A C42U]	0.11
GGCUGAGCUCAACACAACGCGGCAAUGUGGCUGUGGCUAGACUGCC [A4U G17A U20C A26U]	0.05
GGCUGACCUCAACACAGCGUAGCAAAGUGGCUGUGGCUAGACUGCC [A4U G7C G21A]	0.29
GGCUGAGCUCAACACAACGUGGCAAAGUGGCUGUUGCUAGACUGCC [A4U G17A G35U]	0.17
GGCUGAGCGCAACACAGGGUGGCAAAGUGGCUGUGGCUAGACUGCC [A4U U9G C18G]	0.42
GGCUGAGCUCAACACACCGUGUCACAGUGGCUGUGGCUAGACUACC [A4U G17C G22U A25C G44A]	0.07
